In ChEMBL document CHEMBL4888484, “Replenishing the malaria drug discovery pipeline: Screening and hit evaluation of the MMV Hit Generation Library 1 (HGL1) against asexual blood stage Plasmodium falciparum ,using a nano luciferase reporter read-out” (2022):
The campaign covered roughly 150,000 compounds. About 540 (0.36%) showed an effect of 50% or more. The list shows a part of the results.

System: Plasmodium falciparum
Assay: Primary screen in NF54 nanoGlo assay, in single point, at 2uM, 72h; a lower Z score goes with more inhibition
Format: functional, Erythrocyte
Conditions: timepoint 72 hour

| Structure (SMILES) | % Inhibition [%] | Z score |
| --- | --- | --- |
| CCN1C(=O)CN(C(=O)c2ccc3ncccc3c2)CC12CCOCC2 | -9 | 1.12 |
| O=C(N[C@H]1COCC[C@@H]1Oc1ccccn1)c1cccnc1O | -10 | 1.4 |
| O=C(c1cc(O)c(OCc2ccccc2)cn1)N1CCc2ccccc2C1 | 1 | -0.06 |
| CCOC1(C(=O)N[C@H]2CCn3ccnc32)CCCC1 | -3 | 0.65 |
| Cc1cc(CN(CCS(C)(=O)=O)C(C)C)no1 | -11 | 1.14 |
| CN(C)Cc1csc(CNC(=O)Nc2cc3n(n2)CCN(C)C3)n1 | 6 | -0.92 |
| COc1nn(C)cc1CNC(=O)[C@@H]1CCc2cccc(O)c21 | -5 | 0.83 |
| CC(=O)Nc1ccc(C(=O)N2C3CCC2CC(n2cncn2)C3)cc1 (centres undefined) | -5 | 0.53 |
| COCc1ccc(C(=O)NCc2nccn2C(C)C)s1 | 5 | -0.95 |
| Cc1ccc2nc(NC(=O)CCC(=O)OC3CCC(C)C(C)C3)sc2c1 (centres undefined) | -9 | 1.29 |
| Cc1ccc(Cc2nc(N3CCN(C(=O)Nc4cccc(Br)c4)CC3)c3c(-c4cccnc4)noc3n2)cc1 | -10 | 1.99 |
| CC(C)Oc1ccc(-c2noc(-c3nn(-c4ccc(Cl)cc4)ccc3=O)n2)cc1 | -1 | 0.18 |
| O=c1ccc(-c2ccc3c(c2)OCO3)n[nH]1 | -7 | 1.17 |
| Cc1nc2ccc3nc(NC(=O)CN4C(=O)c5ccccc5C4=O)sc3c2s1 | -8 | 1.32 |
| Cc1cc(C(=O)N(C)Cc2cccnc2)cc(=O)[nH]1 | -5 | 0.92 |
| CCNC(=NCc1ccc(CC)s1)NCC | -4 | 0.74 |
| CCCn1c(C)cnc1CCNC(=O)c1ccoc1 | -7 | 0.73 |
| COc1cccc(CN2CC3(CCN(C(=O)c4cncnc4C)CC3)CC2=O)c1 | -9 | 1.8 |
| COCCn1c(C)cc(C(=O)N2CCC3(CC2)C[C@@H](CCO)CCO3)c1C | -7 | 1.41 |
| Cc1ccc(Cl)cc1-n1ncc2c(NCc3ccc4c(c3)OCO4)ncnc21 | 8 | -0.91 |
| Cn1cc(C(=O)N2CC[C@H](Oc3cccc(Cl)c3)C2)ccc1=O | -4 | 0.47 |

| Structure (SMILES) | % Inhibition [%] | Z score |
| --- | --- | --- |
| CCN1Cc2ccccc2C[C@H]1C(=O)NC1CCN(S(=O)(=O)c2ccccc2)CC1 | -10 | 0.93 |
| Cc1ccc(C(C)(C)CN(C)S(=O)(=O)N(C)C)cc1 | -9 | 1.26 |
| CN(C)c1ccc(CNc2nc[nH]n2)cc1 | -7 | 0.6 |
| CN(C)CCCC1(O)c2ccccc2C=Cc2ccccc21 | -32 | 3.78 |
| COC(C(=O)N1CCCCC1C(=O)N1CCOCC1)C1CC1 (centres undefined) | -9 | 1.21 |
| O=C(NCc1ccco1)c1nnsc1NC(=O)N1CCOCC1 | -2 | 0.32 |
| Cc1noc(C)c1CCC(=O)N1CC[C@@H](c2cccs2)S(=O)(=O)CC1 | -11 | 1.87 |
| O=C1[C@@H]2C[C@@H](O)CN2C2(CN(Cc3ccccc3)C2)C(=O)N1Cc1cccnc1 | -12 | 2.14 |
| CC(=O)N1CCC[C@H]1c1nc(-c2cccc(C(F)(F)F)c2)c[nH]1 | 14 | -1.86 |
| Cn1c(C(=O)Nc2ccc(N3CCCCC3)cc2)cccc1=O | -14 | 2.68 |
| CN1CCN(C(=O)c2ccc(NCCc3ccc(Cl)cc3)c(S(=O)(=O)Nc3cccc(C(F)(F)F)c3)c2)CC1 | 23 | -2.7 |
| Cc1ccc(NC(=O)c2ccc(C(=O)Nc3ccc(C)c(Cl)c3)s2)cc1Cl | -9 | 1.3 |
| COc1ccc(-c2c3c(cc(C)[n+]2[O-])oc2ccc(OC)cc23)cc1 | 5 | -0.68 |
| CC(C)C[C@@H](CO)NC(=O)Nc1cccs1 | -13 | 2.38 |
| CCc1noc(C)c1C(=O)N[C@H]1CCN(Cc2cccnc2)C[C@@H]1O | -8 | 1.02 |
| Cc1cc(N2CCCC2)nc(N2CCN(C(=O)C3CCCC3)CC2)n1 | -9 | 1.77 |
| O=C(C[C@H]1CC(=O)Oc2ccccc21)NCc1ccncc1 | -5 | 0.54 |
| Cn1cc(C(=O)NCC#CCOc2ccccc2C(N)=O)nn1 | -18 | 2.28 |
| CCN(CCC(=O)NCCN1CCCCC1)C(=O)c1cc2n(n1)CCCN(Cc1ccccc1C)C2=O | 5 | -0.63 |
| Cc1n[nH]cc1CNC(=O)N1CCOCC1C1CCCC1O (centres undefined) | -7 | 1.35 |
| Cc1cccc2c1CN(C(=O)OC(C)(C)C)CCN2C(=O)c1ccnc(N(C)C)c1 | -7 | 1.23 |
